# From the RNAGym collection of RNA variant scans (doi:10.7554/elife.90254)
# The source gives no read counts; variants with many changes may rest on few reads.
# B1: LINE1-mini (parent)
# chain: GGCAGAGCUCAACACAGCGUGGCAAAGUGGCUGUGGCUAGACUGCC
# Variants of: B1
# Assay: self-cleavage, relative activity (ratio to wild type); higher = more cleavage; in vitro, sequencing; the parent is a self-cleaving ribozyme
row,Variant,self-cleavage
1,GGCAGAGCUAAACAUAGCGUGGCAAAGUGGCUGUGGCUAGAUUGCC,0.03
2,GGCAGAGCUAAACACAACGUGGCAAAGUGGCUGUGCCUAGACUGUC,0
3,GGCAGAGCUAAACAUAGCGAAGCAAAGUGGCUGUGGCUACACUGCC,0.01
4,GGCAGAGCUAAACACAGCGUGUCAAAGAGGCUAUGGCUAGACUGCA,0.02
5,GGCAGAGCUAAACACAGUGUGGCAAACUGGCUGUGGCUAGACUGCC,0.53
6,GGCAGAGCUAAACACAGCGUCGCGGAGUGGCUGAGGCUAGACUGCC,0.03
7,GGCAGAGCUAAACACAGCGUGCCAAAAUGGCUGUGGCUAGACUGCC,0.01
8,GGCAGAGCUAAACACAGCGUGCCAAAUUGGCUGUGGCUAGACUGCC,0.02
9,GGCAGAGCUAAACACAGUGUGGCAAAGUGGCUGUGGCUAAACUGCC,0.01
10,GGCAGAGCUAAAAACAGCGUGGCAAAGUGGCUAUGGCUAGACUGCC,0.03
11,GGCAGAGCUAAACACAGCGUGCCAAAGCGGGUGCGCCUAAACUGCC,0
12,GGCAGAGCUAAACACAGCGUGGCAAAGUGGCUGUGGCUUUACUGCC,0
13,GGCAGAGCUAAACACAGCUUGGCAACGUGGCUUUGGCUAGAAUGCC,0.01
14,GGCAGAGCUAAAAACAGCGUGGCAAAGUGGAUGUGGCUAGACUGCC,0.04
15,GGCAGAGCUAAACACAUCGUGGCAAAGUGGCUGUGUCUAGACUGCC,0.02
16,GGCAGAGCUAAACACACCGAGGCAAAGUGGCUGUGGCUAGACUGCC,0.03
17,GGCAGAGCUAAACAUAGCGUGGCGAAGUGGCUGUGGUUAGACUGCC,0.01
18,GGCAGAGCUAAACACACGGUGGCAAAGUCGCUGUGGCUCGACUGCC,0
19,GGCAGAGCUAAACAAAGCGUGGGAAAGUGGCUGUGGCUAGACUGUC,0.03

row,Variant,self-cleavage
1,GGCAGAGCUAAACACAGCGUGGCAUAGUUGCUGGGGCUAGACUGCC,0.02
2,GGCAGAGCUAAAUACAGCGUGGCAAAGUGUCUGUGGAUAGACUGCC,0.01
3,GGCAGAGCUAAACACAGCAUGGUAAAGUGGCUGUGGAAAGACUGCC,0.01
4,GGCAGAGCUAAAGACAGCGUGGCAAAGUGGCUGUGGCUAGGCUCCC,0
5,GGCAGAGCUAAACAUAGCGUGGCAAAGUGGCUGCGGCUAGACUGCC,0.08
6,GGCAGAGCUAAAAACAGCGUGGCAAAGUGGCUCUGCCUAGACUGCC,0.01
7,GGCAGAGCUAAACACAACGUGGCGAAGUAGCUGUGGCUAGACUGGC,0.04
8,GGCAGAGCUAAACACAGCGUGGCAAAGUGGCUGUGGUUAGCCUGCC,0.01
9,GGCAGAGCUAAAAAAAGCGUGGCAAAGUGGCUGUGGCUAGACUGCC,0.02
10,GGCAGAGCUAAACACAGGGUGCCAAAGUGGCUGAGGCUAGACUGCC,0.01
11,GGCAGAGCUAAACACAGAGUGGCAAAGUGGCUGUGGUUAGACUGCC,0.02
12,GGCAGAGCUAAACACAGCUUGGCACAGUGGCUGUGGCUAGACUGCC,0.01
13,GGCAGAGCUAAACAUAGAGUGUCAAAGUGGCUGUGGCUAGACUGCC,0.08
14,GGCAGAGCUAAACAAAGCGUGGUAAAGUGGCUGUGGCUAGACUGCC,0.08
15,GGCAGAGCUAAACACAUCGUGGCAAAGUGGCUCUGGCUAGACUGCC,0.04
16,GGCAGAGCUAAAUACAGCGUGGCAAAGUGGCUGUGUCUAGACUGCC,0.03
17,GGCAGAGCUAAACACAGCGUGGCAAAGUGGACGUGGCUAGACUGCC,0.02
18,GGCAGAGCUAAACACAGCGUCGCAAAUGGGCUGUGGCUAGACUGCC,0.04
19,GGCAGAGCUAAACACAGCGUGUCAACGUGGCUGUGGCUUGACAGCC,0

row,Variant,self-cleavage
1,GGCAGAGCUAAACACAGCGUGGCAAAGUGGCUGUGGCUUGACUCCC,0.01
2,GGCAGAGCUAAACACAGCGUGGCAAAGUGGCUGUGGCUCGAAUGCC,0.06
3,GGCAGAGCUAAACACAGCUUGGCAAAGUGGCUGUGGCUAGACCGCC,0
4,GGCAGAGCUAAACAUAGCGUGGCACAGUGGCUGUAGCUAGACUGCC,0.01
5,GGCAGAGCUAAACACAGCGUUGCAAAGUGGCUGUGGCUAGACGUCC,0.02
6,GGCAGAGCUAAACACAGCGUGUCAAAGUGGCUGUGGCUAGACUGUC,0.07
7,GGCAGAGCUAAAUACAGCGUGGAAAAGUGGCUGUCGCUAGACUGCC,0.01
8,GGCAGAGCUAAACACAGCGUGGGAAAGUGGCUGUGGCUAGAAAGCC,0.01
9,GGCAGAGCUAAAGACCCUGUGGCAAAGUGGCUGUGUCUAGACUGCG,0.01
10,GGCAGAGCUAAACACAGCGUCGCAAAGUGGCGGUUGCUAGACUGCC,0
11,GGCAGAGCUAAACACAGCGUGGCAACGUGUCUGUGGCUAGACUGUC,0.04
12,GGCAGAGCUAAACACAGCGUGGGAAAGUGGCUGUGGCGAGAUUGCC,0.03
13,GGCAGAGCUAAACACAGCGUGGCAAAGUGGCUGUGGCUAGGAUGCA,0.01
14,GGCAGAGCUAAACACAGCGUUGCGAAGUGGCUGUGGCUUGACUGCC,0.17
15,GGCAGAGCUAAACACAUCAUGGCAAAAGGGCAGUGGCUUGACUGCC,0.02
16,GGCAGAGCUAAACACAGCCUUGCAAAGUGGCUGUAGCAAGACUGCC,0.01
17,GGCAGAGCUAAACACAGCCUGGCAAAGUGGGUGUGGCUAGACUGCC,0.05
18,GGCAGAGCUAAACACACCGUGGCAAAGUGGCUGACGCUAGACUGAC,0.01
